# Measured values taken from paper PMC4336329 (PLoS ONE, 2015).
# Out of some 310,000 compounds screened, about 2,200 (0.71%) showed an effect of 50% or more. The effect is printed as a negative number. The list shows a part of the results.
# Target: human ether-à-go-go-related gene (hERG) potassium channel (human, UniProt Q12809)
# Test: primary screen, population patch clamp on CHO cells stably expressing hERG
# human ether-à-go-go-related gene (hERG) potassium channel, sequence (Q12809 whole entry, looked up): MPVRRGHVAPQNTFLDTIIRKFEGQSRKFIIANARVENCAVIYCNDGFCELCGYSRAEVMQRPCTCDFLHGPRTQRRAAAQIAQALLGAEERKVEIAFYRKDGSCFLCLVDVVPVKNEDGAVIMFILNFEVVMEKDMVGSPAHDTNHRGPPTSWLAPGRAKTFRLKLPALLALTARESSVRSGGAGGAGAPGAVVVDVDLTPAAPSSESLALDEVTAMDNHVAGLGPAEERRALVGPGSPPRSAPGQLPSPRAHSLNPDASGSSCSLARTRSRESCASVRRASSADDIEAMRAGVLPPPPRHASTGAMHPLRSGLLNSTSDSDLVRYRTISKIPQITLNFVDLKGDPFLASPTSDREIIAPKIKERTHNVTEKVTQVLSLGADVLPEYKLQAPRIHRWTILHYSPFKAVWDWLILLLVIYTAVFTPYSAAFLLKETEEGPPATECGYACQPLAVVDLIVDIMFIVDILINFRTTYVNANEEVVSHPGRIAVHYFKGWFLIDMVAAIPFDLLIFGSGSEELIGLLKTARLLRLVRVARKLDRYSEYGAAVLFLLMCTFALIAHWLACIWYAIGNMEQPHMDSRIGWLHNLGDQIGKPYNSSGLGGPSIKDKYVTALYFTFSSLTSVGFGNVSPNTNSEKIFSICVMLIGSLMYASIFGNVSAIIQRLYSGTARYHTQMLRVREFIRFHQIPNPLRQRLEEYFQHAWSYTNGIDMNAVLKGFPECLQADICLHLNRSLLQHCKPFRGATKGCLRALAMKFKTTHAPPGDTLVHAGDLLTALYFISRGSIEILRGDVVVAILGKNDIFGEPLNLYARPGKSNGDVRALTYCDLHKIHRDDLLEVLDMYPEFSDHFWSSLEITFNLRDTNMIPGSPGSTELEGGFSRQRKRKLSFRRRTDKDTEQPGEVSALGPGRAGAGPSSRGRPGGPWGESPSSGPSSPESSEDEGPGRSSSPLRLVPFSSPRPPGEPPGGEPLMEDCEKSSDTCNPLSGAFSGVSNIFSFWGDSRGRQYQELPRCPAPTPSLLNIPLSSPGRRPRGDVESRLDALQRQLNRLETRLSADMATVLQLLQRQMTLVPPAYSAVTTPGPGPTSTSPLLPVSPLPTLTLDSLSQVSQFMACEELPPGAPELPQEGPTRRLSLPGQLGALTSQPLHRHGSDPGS
row,Structure (SMILES),"hERG current change (%, negative = inhibition) at 1uM"
1,CC(O)CN1CC(O)=C(c2nc3ccccc3s2)C1=N (centres unmarked),13.1%
2,CCc1nnc(NC(=O)c2ccc(S(=O)(=O)N3CCN(Cc4ccccc4)CC3)cc2)s1,12.2%
3,Cc1cc(Cl)c2oc(C(=O)N(C)C3CCOC3)c(C)c2c1 (centres unmarked),10%
4,CC1(C(=O)NCCCNc2ncc(C(F)(F)F)cc2Cl)C=CCN1C(=O)c1ccccc1 (centres unmarked),-7.46%
5,COc1ccc(/C=C2\N=C(c3ccc(C)cc3)OC2=O)cc1,14%
6,CCOc1ccc(NC(=O)c2ccc(-n3cccn3)nc2)cc1,16%
7,CN(CC(=O)Nc1c(Cl)cccc1Cl)C(=O)CNC(=O)c1ccco1,8.71%
8,C[C@H](NC(=O)c1ccccc1Cl)C(=O)OC(C(=O)Nc1cc(C(F)(F)F)ccc1Cl)c1ccccc1 (some centres unmarked),16%
9,CCCSc1nsc(NC(=O)Nc2ccc(F)cc2F)n1,13.6%
10,COC(=O)c1ccc(C2/C(=C(\O)c3ccc4c(c3)OCCO4)C(=O)C(=O)N2CCCN2CCOCC2)cc1 (centres unmarked),15%
11,COc1ccc(NC(=O)CC(C)n2ccnc2)cc1 (centres unmarked),8.97%
12,O=C(Cc1cccs1)Nc1nnc(SCC(=O)NC2CCCCC2)s1,12.2%
13,CCOC(=O)C(C)Sc1nc2c(c(=O)[nH]c(=O)n2C)n1Cc1ccc(Cl)cc1 (centres unmarked),-78.7%
14,Cc1nn(C2CCOC(C)(C)C2)c2c1C(c1ccc3c(c1)OCO3)SCC(=O)N2 (centres unmarked),7.51%
15,Cc1cc2c(nc1C)CCCN2C[C@@H](C)O/N=C1/[C@H]2CCn3c(=O)n(-c4ccccc4)c(=O)n3[C@H]2[C@H](O)[C@@H]2O[C@H]12,-10.3%
16,O=C1C2CC=C(Cl)CC2C(=O)N1CC1OCCc2ccccc21 (centres unmarked),1.88%
17,COC(=O)CC1C(=O)NCCN1C(=O)OC(C)(C)C (centres unmarked),9.84%
18,C#CCOCCOCCOCCNc1nc(N2CCN(C(=O)C([C@@H](C)CC)n3cc(C(N)CC(C)C)nn3)CC2)nc(N2CCN(C(=O)[C@H](CCC(=O)O)n3cc(C(N)CC(C)C)nn3)CC2)n1.Cl (some centres unmarked),14.6%
19,Nc1ccn(CC(=O)NCCCc2ccccc2)c(=O)n1,14.2%

row,Structure (SMILES),"hERG current change (%, negative = inhibition) at 1uM"
1,CCCc1nnc(NC(=O)CCC(=O)N2CCC(C)CC2)s1,8.62%
2,O=C(CN1CCN(S(=O)(=O)c2ccc(Br)cc2)CC1)Nc1ccc2c(c1)OCCO2,7.24%
3,O=C(CSC(=S)N1CCCC1)NCC(=O)Nc1ccccc1Br,1.4%
4,CC(C)C(=O)Nc1ccc2c(c1)C(=O)NC2=O,13.9%
5,CCOC(=O)c1c(-c2ccccc2)oc2cc(CN(C)C)c(O)c(CN(C)C)c12,-22.8%
6,COc1ccccc1CN1CCCC(C(=O)c2ccccc2OC)C1 (centres unmarked),-4.58%
7,O=C(COc1ccc(Cl)cc1Cl)N/N=C/C1CC=CCC1 (centres unmarked),5.6%
8,O=C1CCC/C1=C/Nc1ccc(Cl)cc1,-9.18%
9,COc1ccc(CCN2C(=O)C3C(C2=O)C2C=CC3C23CC3)cc1OC (centres unmarked),-1.71%
10,Cc1cccc(-n2ncc(C(=O)NC3CCCC3)c2C2CCN(C(=O)OC(C)(C)C)CC2)c1,4.55%
11,Cc1noc(C)c1COC(=O)CNC(=O)c1ccc(Cl)cc1,-2.81%
12,CCn1c2ccccc2c2nnc(SCC(=O)Nc3c(C)n(C)n(-c4ccccc4)c3=O)nc21,10.6%
13,CCCn1cnc2scc(-c3ccc(C)c(C)c3)c2c1=O,7.31%
14,CC(NC(=O)COC(=O)c1ccc(OCC2CCCO2)cc1)c1ccccc1Cl (centres unmarked),19.5%
15,O=C1CSC(c2ccccn2)N1c1ccc(F)cc1F (centres unmarked),3.3%
16,O=C(CN(Cc1ccccc1Cl)S(=O)(=O)c1ccc(Cl)cc1)N/N=C/c1ccc(C(=O)O)cc1,16.1%
17,COc1ccc(S(=O)(=O)N2CCN(C(=O)NC3CCCCC3)CC2)cc1,4.33%
18,Cc1ccc(N(CC(=O)NCc2ccccc2)C(=O)c2csnn2)c(C)c1,22.4%
19,CC(=O)N(c1ccc(C(F)(F)F)cc1)S(=O)(=O)c1ccc(N2C(=O)CCC2=O)cc1,6.55%

row,Structure (SMILES),"hERG current change (%, negative = inhibition) at 1uM"
1,O=C(NC1CCCC1)c1ncn[nH]1,9.28%
2,COc1cc(C(=O)NCCC(=O)NCCCN2CCCCC2C)cc(OC)c1OC (centres unmarked),3.78%
3,O=C(O)/C(=C\c1ccccc1Cl)c1ccc(S(=O)(=O)N2CCCCC2)s1,11.2%
4,CCCCOc1ccccc1C1NC(=O)NC(C)=C1C(=O)OCCOCC (centres unmarked),6.66%
5,Cc1cccc(C)c1NC(=O)CNC(=O)CCCN1C(=O)c2cccc3cccc(c23)C1=O,25.5%
6,CC1CN(Cc2nc3c(c(=O)[nH]c(=O)n3C)n2CC(N)=O)CC(C)O1 (centres unmarked),3.32%
7,COc1ccc(Nc2nc(C)cc(C)c2C#N)cc1OC,10.3%
8,COc1ccc(/C=N/NC(=O)c2nonc2N)cc1OC,14.6%
9,CC(C)C(=O)NNC(=O)C1CC1(c1ccccc1)c1ccccc1 (centres unmarked),13.6%
10,Cc1ccc(SCCC(=O)N2CCC(C(N)=O)CC2)cc1,4.72%
11,CCOC(=O)C1CCCN(C(=O)c2csc(-c3ccc4c(c3)CCO4)n2)C1 (centres unmarked),5.33%
12,COc1ccccc1CNc1nc(=S)[nH]c2cc(OC)c(OC)cc12,14.5%
13,[O-]C1=N/[N+](=C/c2ccc(Cl)c(Cl)c2)CC1,16.9%
14,COc1ccc(C(=O)NC(CCSC)C(=O)N2CCCCCC2)cc1 (centres unmarked),2.69%
15,O=C(NN=C1CCCCCCC1)C(=O)NC1CCCCC1,4.04%
16,CCOC(=O)c1[nH]c(=O)c2ccccc2c1O,3.27%
17,O=c1c2ccccc2cnn1Cc1n[nH]c(=S)n1-c1ccccc1Cl,14.9%
18,COc1ccc(CNC(=O)c2csc(Cc3ccc(Cl)cc3)n2)cc1,3.73%
